Measured values as given in the supplement of paper PMC12067230.
This is a noisy data set.

Assay: amyloid nucleation score relative to library mode (yeast Sup35 reporter selection) (log enrichment difference); higher = more amyloid nucleation; sequences are the first 22 residues of the Bri2 peptide extended by up to 12 random residues
Settings: random library (experiment): 1;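 active = nucleation score significantly above 0 at FDR 0.05; inactive = not significantly above 0 or absent from output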
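Note: [psi-pin-] Saccharomyces cerevisiae expressing SupN fusions, induced by 100 µM Cu2SO4, selected 7 d at 30 °C without adenine and uracil, scored by deep sequencing of output versus input.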

Sequence | amyloid nucleation score
EASNCFAIRHFENKFAVETLICDYVNSNMVHRFM | inactive
EASNCFAIRHFENKFAVETLICWQRVELLTASLW | inactive
EASNCFAIRHFENKFAVETLICVREISGFLERSF | inactive
EASNCFAIRHFENKFAVETLICLTYCRVGAPRAK | inactive
EASNCFAIRHFENKFAVETLICASWVIHKPRKVP | inactive
EASNCFAIRHFENKFAVETLICHNMDDSSILNVP | inactive
EASNCFAIRHFENKFAVETLICVSNVRFQKNVWR | 1.78
EASNCFAIRHFENKFAVETLICVGHSLCFNLSSP | 4.5
EASNCFAIRHFENKFAVETLICFASR | 6.84
EASNCFAIRHFENKFAVETLICRCYYEY | inactive
EASNCFAIRHFENKFAVETLICLVYS | inactive
EASNCFAIRHFENKFAVETLICFEVIEMWHRSCG | inactive
EASNCFAIRHFENKFAVETLICASRLSLPLLGLG | inactive
EASNCFAIRHFENKFAVETLICLGNGVPAGEECV | inactive
EASNCFAIRHFENKFAVETLICFKVSIC | 6.67
EASNCFAIRHFENKFAVETLICTLSTSPDDHLRL | inactive
EASNCFAIRHFENKFAVETLICAGERVRRCGTGS | inactive
EASNCFAIRHFENKFAVETLICYRMWHLSGARLQ | 1.13
EASNCFAIRHFENKFAVETLICPVADAG | inactive

Sequence | amyloid nucleation score
EASNCFAIRHFENKFAVETLICIRAVKVLARG | inactive
EASNCFAIRHFENKFAVETLICLQVM | inactive
EASNCFAIRHFENKFAVETLICRRIRRGWPHRRR | inactive
EASNCFAIRHFENKFAVETLICLNRSGLYEWGVG | 2.49
EASNCFAIRHFENKFAVETLICFMCNVFMYSTYD | 6.61
EASNCFAIRHFENKFAVETLICRLAGSYASGVRR | inactive
EASNCFAIRHFENKFAVETLICVIMCECDASV | 7.76
EASNCFAIRHFENKFAVETLICTWALVHGVVGRW | inactive
EASNCFAIRHFENKFAVETLICYVSMDT | 5.55
EASNCFAIRHFENKFAVETLICFPREYSSIVVFS | inactive
EASNCFAIRHFENKFAVETLICMWFSAARVGS | 0.6
EASNCFAIRHFENKFAVETLICVCTWVRYTFALS | 2.38
EASNCFAIRHFENKFAVETLICLSLGRRMIVALW | inactive
EASNCFAIRHFENKFAVETLICPGLLASNNEEKS | inactive
EASNCFAIRHFENKFAVETLICQLVSTS | inactive
EASNCFAIRHFENKFAVETLICLAERTRSLAPRD | 3.45
EASNCFAIRHFENKFAVETLICMIHGTVCPDFKY | inactive
EASNCFAIRHFENKFAVETLICGHSPEPYRVYL | -0.0194
EASNCFAIRHFENKFAVETLICGCRQCETVSRMM | 3.93

Sequence | amyloid nucleation score
EASNCFAIRHFENKFAVETLICRARKRPGTCVLV | inactive
EASNCFAIRHFENKFAVETLICTITRAIERLMAR | inactive
EASNCFAIRHFENKFAVETLICDRLILSPYFMLI | 7.15
EASNCFAIRHFENKFAVETLICGYWVQQRYCSVL | inactive
EASNCFAIRHFENKFAVETLICVNCGILMTYCRG | 5.07
EASNCFAIRHFENKFAVETLICTLSYFWWERFCG | inactive
EASNCFAIRHFENKFAVETLICWDGESLLNSSLS | inactive
EASNCFAIRHFENKFAVETLICFPMPQYCSLSAV | inactive
EASNCFAIRHFENKFAVETLICHEVLLTRCMARL | 4.04
EASNCFAIRHFENKFAVETLICLSQANVANCVKG | 1.12
EASNCFAIRHFENKFAVETLICWFR | inactive
EASNCFAIRHFENKFAVETLICRRGSPVGLHMHG | inactive
EASNCFAIRHFENKFAVETLICCNLKGYVSRFGP | 7.55
EASNCFAIRHFENKFAVETLICKSGNVVVWIMGF | inactive
EASNCFAIRHFENKFAVETLICQLKVVELARYLL | inactive
EASNCFAIRHFENKFAVETLICPVNHCEDVYDTL | inactive
EASNCFAIRHFENKFAVETLICLHTCTGNMLWW | inactive
EASNCFAIRHFENKFAVETLICGKLVFVCRWMS | inactive

Same assay, conditions: random library (experiment): 2

Sequence | amyloid nucleation score
EASNCFAIRHFENKFAVETLICWGESNGQCEIES | 0.664
EASNCFAIRHFENKFAVETLICRIYKLF | inactive
EASNCFAIRHFENKFAVETLICERSKMWGSLGRK | 3.23
EASNCFAIRHFENKFAVETLICTTAIIW | 3.42
